Experimental data taken from the supplement of paper PMC4967469.
IC50 is the fitted dose that halves viability relative to control wells, and lower means more sensitive; fits outside the tested doses are given as limits. AUC sums up the same curve from the lowest dose to the 256-fold higher top dose; the more sensitive the line, the further below 1. For part of these data: Any top dose called inferred comes from the curve model; the source does not state it. For part of these data: An entry number marks a drug with two screens in the source, which often give different values.

Key:
Test in all cases: Viability of human cancer cell lines after 72 h of drug (GDSC screen)
JNK-9L = compound: Fc1cc(-c2ccnc(Nc3ccc(-n4cnc(N5CCOCC5)n4)cc3)n2)cc(N2CCOCC2)c1 [JNK-9L]; details: top dose 5.12 µM; top dose inferred
Description: (§1)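 Human cancer cell lines in 384-well plates, medium with 10% serum, drug for 72 h over a 256-fold dose range (nine 2-fold or five 4-fold steps up to the top dose). Adherent lines were fixed and stained with the nucleic acid dye Syto60, suspension lines read with resazurin; signal relative to control wells, capped at 0 and 100%. One two-parameter sigmoid per drug and line, fitted in a mixed model over all curves with the slope shared within a line.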

QS11 = compound: OC[C@H](Cc1ccccc1)Nc1nc(Oc2ccc3c(c2)CCC3)nc2c1ncn2Cc1ccc(-c2ccccc2)cc1 [QS11]; details: top dose 10.24 µM
Description: as §1

RDEA119 = compound: COc1cc(F)c(F)c(Nc2ccc(I)cc2F)c1NS(=O)(=O)C1(C[C@H](O)CO)CC1 [RDEA119]; details: top dose 5 µM, top dose inferred
Description: as §1

OSU-03012 = compound: NCC(=O)Nc1ccc(-n2nc(C(F)(F)F)cc2-c2ccc3c(ccc4ccccc43)c2)cc1 [OSU-03012]; details: top dose 16 µM; top dose inferred
Description: as §1

5-Fluorouracil = compound: O=c1[nH]cc(F)c(=O)[nH]1 [5-Fluorouracil]; details: top dose 32 µM; top dose inferred
Description: as §1

AC220 = compound: CC(C)(C)c1cc(NC(=O)Nc2ccc(-c3cn4c(n3)sc3cc(OCCN5CCOCC5)ccc34)cc2)no1 [AC220]; details: top dose 1.024 µM; top dose inferred
Description: as §1

CUDC-101 = compound: C#Cc1cccc(Nc2ncnc3cc(OC)c(OCCCCCCC(=O)NO)cc23)c1 [CUDC-101]; details: top dose 5.12 µM; top dose inferred
Description: as §1

Cell Line | AUC (JNK-9L) | IC50 (JNK-9L) [nM] | AUC (QS11) | IC50 (QS11) [nM] | AUC (RDEA119; screen: GDSC drug entry 1014) | IC50 (RDEA119; screen: GDSC drug entry 1014) [nM] | AUC (RDEA119; screen: GDSC drug entry 1526) | IC50 (RDEA119; screen: GDSC drug entry 1526) [nM] | AUC (OSU-03012) | IC50 (OSU-03012) [nM] | AUC (5-Fluorouracil) | IC50 (5-Fluorouracil) [nM] | AUC (AC220) | IC50 (AC220) [nM] | AUC (CUDC-101) | IC50 (CUDC-101) [nM]
KURAMOCHI (ovary, adherent) | 0.58 | 548 | 0.776 | 4730 | 0.91 | > 5000 | 0.883 | > 5000 | 0.592 | 1870 | 0.907 | > 32000 | 0.98 | > 1020 | 0.652 | 909
NCI-H1770 (non-small cell lung carcinoma, suspension) | 0.572 | 490 | 0.875 | 7920 | 0.988 | > 5000 | 0.992 | > 5000 | 0.737 | 4270 | 0.864 | 22400 | 0.992 | > 1020 | 0.615 | 636
HuP-T3 (pancreas, adherent) | 0.702 | 1360 | 0.93 | > 10200 | 0.596 | 609 | – | – | 0.818 | 11700 | 0.723 | 10000 | 0.975 | > 1020 | 0.55 | 451
SU-DHL-8 (B-cell lymphoma, suspension) | 0.457 | 246 | 0.57 | 982 | 0.986 | > 5000 | 0.969 | > 5000 | 0.557 | 1420 | 0.8 | 14300 | 0.971 | > 1020 | 0.124 | 22.8
SUP-HD1 (Hodgkin lymphoma, suspension) | 0.549 | 433 | 0.954 | > 10200 | 0.966 | > 5000 | 0.985 | > 5000 | 0.829 | 9310 | 0.556 | 2820 | 0.945 | > 1020 | 0.42 | 196
PANC-03-27 (pancreas, adherent) | 0.478 | 280 | 0.839 | 6360 | 0.643 | 753 | 0.758 | 1630 | 0.659 | 2680 | 0.598 | 3630 | 0.988 | > 1020 | 0.593 | 566
G-402 (soft tissue, adherent) | 0.471 | – | 0.917 | > 10200 | 0.881 | > 5000 | 0.857 | > 5000 | 0.751 | 6870 | 0.624 | 4950 | 0.811 | 782 | 0.85 | > 5120
EB2 (Burkitt lymphoma, suspension) | 0.614 | 638 | 0.959 | > 10200 | 0.99 | > 5000 | 0.984 | > 5000 | 0.75 | 4800 | 0.542 | 2570 | 0.93 | > 1020 | 0.412 | 188
SW1463 (large intestine, adherent) | 0.596 | 706 | 0.968 | > 10200 | – | – | 0.688 | 1560 | 0.825 | > 16000 | 0.911 | > 32000 | 0.977 | > 1020 | 0.904 | > 5120
NCI-H209 (small cell lung carcinoma, suspension) | 0.722 | 1440 | 0.974 | > 10200 | 0.985 | > 5000 | 0.969 | > 5000 | 0.887 | > 16000 | 0.976 | > 32000 | 0.925 | > 1020 | 0.974 | > 5120
OAW-42 (ovary, adherent) | 0.644 | 829 | 0.95 | > 10200 | 0.851 | 4340 | 0.812 | 2950 | 0.802 | 8660 | 0.954 | > 32000 | 0.984 | > 1020 | 0.745 | 1730
NCI-H1568 (lung adenocarcinoma, adherent) | 0.555 | 469 | 0.974 | > 10200 | 0.828 | 4190 | 0.78 | 2600 | 0.741 | 5900 | 0.971 | > 32000 | 0.978 | > 1020 | 0.98 | > 5120
RKO (large intestine, adherent) | 0.312 | 99.7 | 0.777 | 3810 | 0.729 | 1320 | 0.749 | 1520 | 0.46 | 786 | 0.592 | 3510 | 0.974 | > 1020 | 0.522 | 365
SW948 (large intestine, adherent) | 0.687 | 1380 | 0.977 | > 10200 | 0.831 | > 5000 | 0.909 | > 5000 | 0.892 | > 16000 | 0.684 | 8360 | 0.98 | > 1020 | 0.77 | 2920
YT (lymphoid neoplasm, suspension) | 0.527 | 376 | 0.939 | > 10200 | 0.632 | 678 | 0.992 | > 5000 | 0.739 | 4220 | 0.344 | 797 | 0.948 | > 1020 | 0.249 | 70.1
CAL-29 (bladder, adherent) | 0.693 | 1170 | 0.984 | > 10200 | 0.766 | 1980 | 0.748 | 1720 | 0.758 | 5920 | 0.924 | > 32000 | 0.973 | > 1020 | 0.52 | 364
KARPAS-620 (haematopoietic neoplasm, suspension) | 0.541 | 406 | 0.731 | 2590 | 0.857 | 3190 | 0.616 | 621 | 0.702 | 3360 | 0.665 | 5340 | 0.979 | > 1020 | 0.294 | 92.7
